Laboratory results: publication PMC4336329 (PLoS ONE, 2015)
The whole screen tested about 310,000 compounds, of which about 14,000 (4.5%) showed an effect of 50% or more. The effect is printed as a negative number. Some of the results follow.

Molecular target: human ether-à-go-go-related gene (hERG) potassium channel (human, UniProt Q12809)
Experiment: primary screen, population patch clamp on CHO cells stably expressing hERG
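Note: peak tail current of the secondary pulse compared with the same well before compound.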

human ether-à-go-go-related gene (hERG) potassium channel, sequence (Q12809 whole entry, looked up): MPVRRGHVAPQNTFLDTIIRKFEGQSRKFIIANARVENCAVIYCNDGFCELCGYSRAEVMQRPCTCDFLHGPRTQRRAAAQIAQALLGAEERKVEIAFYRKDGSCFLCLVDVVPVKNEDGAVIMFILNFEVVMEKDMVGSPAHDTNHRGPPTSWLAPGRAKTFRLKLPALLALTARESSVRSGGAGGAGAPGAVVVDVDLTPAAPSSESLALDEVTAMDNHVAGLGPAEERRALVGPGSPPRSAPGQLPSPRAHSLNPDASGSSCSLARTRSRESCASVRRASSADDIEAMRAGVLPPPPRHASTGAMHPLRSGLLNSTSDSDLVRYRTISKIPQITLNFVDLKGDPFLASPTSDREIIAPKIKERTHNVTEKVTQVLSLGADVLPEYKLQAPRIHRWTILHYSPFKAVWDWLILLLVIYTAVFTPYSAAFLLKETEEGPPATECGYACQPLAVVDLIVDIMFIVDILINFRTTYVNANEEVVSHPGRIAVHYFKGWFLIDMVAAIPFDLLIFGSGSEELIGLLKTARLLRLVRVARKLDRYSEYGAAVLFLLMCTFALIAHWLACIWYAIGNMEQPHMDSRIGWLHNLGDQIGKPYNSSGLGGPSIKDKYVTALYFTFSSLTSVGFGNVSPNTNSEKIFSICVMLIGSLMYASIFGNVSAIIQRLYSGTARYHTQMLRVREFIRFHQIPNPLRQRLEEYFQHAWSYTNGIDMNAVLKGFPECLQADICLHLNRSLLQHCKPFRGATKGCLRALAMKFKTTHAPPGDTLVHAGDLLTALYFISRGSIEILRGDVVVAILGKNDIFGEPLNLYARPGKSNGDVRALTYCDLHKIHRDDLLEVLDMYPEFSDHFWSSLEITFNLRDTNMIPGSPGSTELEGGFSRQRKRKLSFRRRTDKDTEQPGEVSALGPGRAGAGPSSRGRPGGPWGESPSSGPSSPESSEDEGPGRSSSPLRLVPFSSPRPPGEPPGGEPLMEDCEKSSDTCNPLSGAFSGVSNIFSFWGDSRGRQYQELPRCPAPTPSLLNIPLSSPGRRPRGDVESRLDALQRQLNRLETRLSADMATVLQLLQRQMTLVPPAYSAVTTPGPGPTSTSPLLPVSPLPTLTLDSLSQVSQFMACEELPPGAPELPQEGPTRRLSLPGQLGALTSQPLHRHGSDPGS

| Compound | hERG current change (%, negative = inhibition) at 10uM [%] |
| --- | --- |
| CC(C)(C)C(=O)Nc1ccc(-c2cnco2)cc1 | 6.52 |
| [O-][n+]1cccc(C(O)c2ccccc2)c1 (centres unmarked) | 12.5 |
| O=C([C@H](Cc1ccccc1)NS(=O)(=O)c1ccc(Cl)cc1)N1CC[C@@]2(O)CCCC[C@H]2C1 | -13.4 |
| c1cnc(N2CCN(Cc3c[nH]c4ccccc34)CC2)nc1 | -36 |
| COc1cc(OC)c(C(=O)OCC(=O)Nc2cc(C)on2)cc1OC | 23 |
| NC(=O)C1CCN(C(=O)c2ccc(CS(=O)(=O)c3c(Cl)cccc3Cl)o2)CC1 | 2.63 |
| CN1CCC(OC(=O)COc2ccc(F)cc2)CC1.Cl | -23.2 |
| Cc1ccc(/C=C(\C#N)c2nc3ccccc3[nH]2)s1 | -16.7 |
| COc1ccc(-c2ccc([C@H]3[C@@H]4C=CCC[C@@]4(C)C(=O)N3Cc3ccccc3)c(F)c2)cc1OC | 0.332 |
| O=C(COc1cc2oc(=O)c3c(c2cc1Cl)CCC3)NCC1CCC(C(=O)O)CC1 (centres unmarked) | 5.36 |
| COCC1CCN(Cc2nc(COc3ccccc3)no2)C1 (centres unmarked) | 12.3 |
| COc1ccc(C)cc1NC(=O)CN1C(=O)COc2ccc(S(=O)(=O)N3CCCCCC3)cc21 | 21.8 |
| CCCCCCNc1nc(NCc2ccco2)nc(OCC)n1 | -28.9 |
| Fc1ccc(-c2nnc3ccc(N4CCc5ccccc5C4)nn23)cc1 | -24.4 |
| CC(OC(=O)c1nc(-c2ccccc2)n(-c2ccccc2)n1)C(=O)Nc1cc(Cl)cc(Cl)c1 (centres unmarked) | -6.35 |
| Oc1ccc2cc(Br)ccc2c1CN1CCCC1 | -11.1 |
| CCOc1ccc(S(=O)(=O)NCCC(=O)NCCCSc2ccccc2)cc1 | -6.32 |
| Cc1cccc(/N=C/c2c(O)ccc3oc4c(c23)CCCC4)n1 | 1.07 |
| COC(=O)c1ccc(NC(=O)C23CC4CC(C2)CC(n2cncn2)(C4)C3)cc1 | -22 |
| Br.Cc1csc(=Nc2ccccc2)n1CCO | -3.39 |
| O=C1Cc2cc(NS(=O)(=O)c3ccc(F)cc3)cc3c2N1CCC3 | -14.6 |
| O=[N+]([O-])c1cccc2ccc(/C=C/c3cccc(Br)c3)nc12 | 18.8 |
| O=C1N(CN2CCOCC2)c2ccccc2C1(O)c1c[nH]c2ccccc12 (centres unmarked) | 16.8 |

| Compound | hERG current change (%, negative = inhibition) at 10uM [%] |
| --- | --- |
| N/C(CN1CCSCC1)=N\OCc1c(F)cccc1Cl | 7.15 |
| COc1cccc(CC(=O)OCC(=O)NC(C)c2ccc(F)cc2)c1 (centres unmarked) | 6.19 |
| Cc1ccc(C(=O)COc2ncnc3cc(Cl)ccc23)cc1 | -1.95 |
| COc1ccc([C@H]2CC(=O)C=C(c3ccc(C(F)(F)F)c(C(F)(F)F)c3)C2)cc1OC | 16.3 |
| Cn1c(=S)n(C)c2ccccc21 | 26.6 |
| NC(=NCCc1c[nH]c2ccccc12)NS(=O)(=O)c1ccc(F)cc1 | -4.37 |
| CCN(CC)S(=O)(=O)c1ccc(C)c(NC(=O)COC(=O)c2ccc(C)c(S(=O)(=O)N3CCOCC3)c2)c1 | -27.3 |
| CCn1cc(Br)c(C(=O)Nc2ccc(C(=O)OC(C)C)cc2)n1 | -3.53 |
| NC(=O)c1c(NC(=O)c2ccc(F)cc2Cl)sc2c1CCC2 | 8.82 |
| O=C(O)CN1C(=O)/C(=C\c2cc(Br)ccc2OCc2ccc(F)cc2)SC1=S | 3.09 |
| Cc1cccc(N=C2NC(=O)/C(=C/c3cccn3C)S2)c1 | 17.4 |
| Cn1ccnc1C(OC(=O)c1ccccc1)C(F)(F)F (centres unmarked) | 21 |
| COC(=O)C(Cc1ccccc1)NC(=O)CCc1c[nH]c2ccccc12 (centres unmarked) | -8.09 |
| Cc1cc(C)c2c(N)c(C(=O)c3cccc(Cl)c3)sc2n1 | 1.67 |
| CC(=O)N[C@H]1[C@H](OCc2ccccc2F)O[C@H](COC(C)=O)[C@@H](OC(C)=O)[C@@H]1OC(C)=O | 8.2 |
| O=C(NC1CC1)C1CCN(S(=O)(=O)c2cc(Cl)ccc2Cl)CC1 | 6.05 |
| CCc1nnc(NC(=O)c2nc(S(=O)(=O)Cc3ccccc3)ncc2Cl)s1 | 2.69 |
| COCCCNC(=O)C1CCC(=O)N(c2ccc3c(c2)OCO3)C1c1ccc(OC)cc1 (centres unmarked) | 14.8 |
| COc1ccc(C(CC(=O)Nc2cc([N+](=O)[O-])ccc2OC)c2ccccc2)cc1 (centres unmarked) | 8.82 |
| CC(C)c1ccc(C(=O)NCCCN(C)C)cc1 | -17.1 |
| CNc1ccc(Br)cc(C(=O)/C=C/c2ccc3c(c2)OCO3)c1=O | -10.8 |
| COc1ccc(CCNC(=O)c2ccccc2NS(=O)(=O)c2c(F)cccc2F)cc1 | 14.9 |
| CCOC(=O)COn1c(=O)c(=O)n(O)c2ccccc21 | 7.76 |

| Compound | hERG current change (%, negative = inhibition) at 10uM [%] |
| --- | --- |
| Cl.c1ccc(CC2CCCNC2)cc1 (centres unmarked) | 6.14 |
| CN1CCN(c2ccc(CNS(=O)(=O)c3ccccc3)cc2)CC1 | 0.0513 |
| NS(=O)(=O)c1ccc(NC(=O)CSc2nc3ccccc3nc2N2CCOCC2)cc1 | 7.71 |
| COc1ccc(CCn2c(C3CCCCC3)nc3c(c(=O)c4ccccc4n3C)c2=O)cc1 | 4.13 |
| COc1ccc(C2CC(c3cccs3)=NN2C(=O)CSc2nnc(N)s2)cc1OC (centres unmarked) | -4.6 |
| O=c1ccnc(SCCc2ccc([N+](=O)[O-])cc2)[nH]1 | -34 |
| O=C(COc1ccc(C(=S)N2CCOCC2)cc1)Nc1ccccc1C(F)(F)F | -0.634 |
| CCCCn1c(SCc2cccc([N+](=O)[O-])c2)nc2ccsc2c1=O | 10 |
| O=C(CCC1CCN(Cc2ccc(Cl)cc2)CC1)NC1CC1 | -65.9 |
| C=CCSc1nnc(NC(=O)COc2ccccc2)s1 | -2.18 |
| Cc1ccc[n+](C2C(c3ccc([N+](=O)[O-])cc3)C(C#N)=C([S-])NC2(O)C2CC2)c1 (centres unmarked) | 0.00258 |
| CCOC(=O)c1nn(-c2sc(C(=O)OC)c(C)c2C(=O)OC)cc1O | 11.1 |
| NC(=O)c1ccccc1OCC(=O)Nc1cccnc1Cl | 6.5 |
| CCOC(=O)c1c(N)sc2c1CCCC2=O | 15.9 |
| CCCn1c(SCC(=O)Nc2cc(C(=O)O)ccc2C)nc2sc3c(c2c1=O)CCC3 | 7.84 |
| Cc1cccc(NC(=O)CN(C)S(=O)(=O)c2cccs2)c1 | 2.18 |
| COc1ccc(CCN=C2SCC(=O)N2C)cc1OC | -4.8 |
| CCOc1cc2c(cc1OCC)C(C(=O)O)C(c1cc(Br)c(O)c(OC)c1)N(C)C2=O (centres unmarked) | -3.42 |
| CN(Cc1ccccc1)C(=O)c1ccc(COc2ccccc2)cc1 | -0.833 |
| Cc1cc(-c2nnc(-c3cccc(C(F)(F)F)c3)o2)no1 | 3.54 |
| CC1CCC2(CC1)NC(=O)N(CC(=O)N1CCN(C(=O)c3ccco3)CC1)C2=O (centres unmarked) | -12.5 |
| Cn1cnnc1SCC(=O)Nc1ccccc1Sc1ccccc1 | -16.7 |
| O=C(NCCN1CCOCC1)/C(=C/c1ccc(Cl)cc1)NC(=O)c1ccccc1 | -76.5 |

| Compound | hERG current change (%, negative = inhibition) at 10uM [%] |
| --- | --- |
| CCn1c(CC(=O)Nc2ccccc2OC)nnc1SCC(=O)Nc1ccccc1F | 6.94 |
| O=S(=O)(N1CCCCCC1)N1CCN(S(=O)(=O)N2CCOCC2)CC1 | -2.7 |
| COC(=O)CC1C(=O)NCCN1C(=S)NC(=O)C(c1ccccc1)c1ccccc1 (centres unmarked) | 9.05 |
| COc1ccccc1N1CCN(CC(O)c2c(C)[nH]c3ccccc23)CC1 (centres unmarked) | -49.1 |
| CC(N)Cc1c[nH]c2cc3c(cc12)OCCO3.Cl (centres unmarked) | 2.69 |
| Cc1cc(=O)[nH]c(SCC(=O)Nc2cc(S(=O)(=O)N3CCCC3)ccc2Cl)n1 | 10.1 |
| CCCCCCn1c(N2CCC(C(N)=O)CC2)nc2c1c(=O)[nH]c(=O)n2C | -49.9 |
| Cc1cccc(N2C(=O)CC(NNc3nc4ccccc4s3)C2=O)c1 (centres unmarked) | 10.6 |
| CC(C)Cc1nnc(NC(=O)C2CC(=O)N(Cc3ccccc3)C2)s1 (centres unmarked) | 0.385 |
| CCn1ncc(/C=N\NC(=O)COc2ccccc2)c1C | -4.07 |
| CC1(C)Cc2ccccc2-c2nnc(SCC(=O)Nc3nc4ccccc4s3)n21 | -74.4 |
| CCOC(=O)N1CCC(NS(=O)(=O)c2ccc(C)cc2)CC1 | 4.35 |
| CC(=O)Nc1ccccc1Nc1nc(NCCO)nc(N2CCCC2)n1 | 7.21 |
| CC(=O)Nc1ccc2[nH]c(C)c(CC=C(Cl)Cl)c(=O)c2c1 | 11.9 |
| FC(F)(F)c1cccc(NC(=S)NCCN2CCOCC2)c1 | -21.1 |
| COc1ccc(-c2noc(=O)n2Cc2ccccc2Cl)cc1 | -8.73 |
| COc1ccc(CCN2C(=S)N(C)C(=O)C2CC(=O)Nc2ccc(OC)cc2)cc1 (centres unmarked) | -8.73 |
| Cc1cc(C)n2nc(CCc3ccccc3)nc2n1 | -12.8 |
| Cc1ccc2nc(NCc3ccccc3)c(C=NCc3ccccc3)c(=O)n2c1 | 1.68 |
| Cc1ccc(O)c(Sc2cc(C)ccc2O)c1 | 6.41 |
